The other results are listed elsewhere or left out.
T1: UNK ZnF1-6 (called full-length) (human, UniProt Q9C0B0 30-357)
T1 sequence: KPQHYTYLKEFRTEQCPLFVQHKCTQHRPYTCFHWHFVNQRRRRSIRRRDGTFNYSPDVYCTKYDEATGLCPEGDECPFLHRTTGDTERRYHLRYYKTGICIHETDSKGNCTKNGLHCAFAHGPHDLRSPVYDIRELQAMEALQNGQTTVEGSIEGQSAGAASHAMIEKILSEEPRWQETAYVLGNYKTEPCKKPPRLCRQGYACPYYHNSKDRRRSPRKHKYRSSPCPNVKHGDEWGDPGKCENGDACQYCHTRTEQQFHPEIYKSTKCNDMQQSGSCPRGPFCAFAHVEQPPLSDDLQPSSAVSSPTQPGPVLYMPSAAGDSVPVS

B1: chr9:133361993:133362109:-|3pUTR|ENSG00000148248|msi1_unk|total|mutant (ssRNA)
RNA: GGGAGUUCUACAGUCCGACGAUCGGCAGGUUUCUGCUCAUAAGUGCUUUUGGAAGUCACCUACCUUUUUAACACAGCCGAACCCGUCCCAACGCGUUUGCAAAUAUUCCCCUGGCCGCCUACUUCCUUACCCCCGAAUAUUGGCAACAGAGGAUUGAGCAUCA
B2: chr16:67991837:67991979:-|CDS|ENSG00000167261|control|control|control (ssRNA)
RNA: GGGAGUUCUACAGUCCGACGAUCAACGACACUCAGAAAUUGGCCUGCCUCAUCGGUGUAGAGGGUGGCCACUCGCUGGACAAUAGCCUCUCCAUCUUACGUACCUUCUACAUGCUGGGAGUGCGCUACCUGACGCUCACCCACCAACAGAGGAUUGAGCAUCA
B3: chr12:50175971:50176072:-|3pUTR|ENSG00000050405|msi1|total|mutant (ssRNA)
RNA: GGGAGUUCUACAGUCCGACGAUCCACAGUAUUCUCAGGGUGAAAUUAAACCAACUACCGGCCUUUUUCUUGGGAUGAUUUUCCCGUCUUAAGGUUUGGGGACAUUAUAAACUUGAGUACAUUUGUUGUACACAGUUGAUAUUCCAACAGAGGAUUGAGCAUCA
B4: ENSG00000104980:stop:overlap|stop_codon|ENSG00000104980|stop_codon|NA|stop_codon (ssRNA)
RNA: GGGAGUUCUACAGUCCGACGAUCUGCGGACGAGCGAGGUGCUACGGAAGAAGCUUGGGGAGCUGACGGGCACCGUGAAGGAGUAGAGCCUUCACGAAGUCAGUAAAAGUGAUCUCGGCCGGAAAAUCAAGGAGGGCGUGGAGGCAACAGAGGAUUGAGCAUCA
B5: ENSG00000178234:stop:overlap|stop_codon|ENSG00000178234|stop_codon|NA|stop_codon (ssRNA)
RNA: GGGAGUUCUACAGUCCGACGAUCUGUUAUCUGUUUCUAUAAUGAAGCGUUUUCUGCCUUGCUUCGGACAGUGCACAGUGUCAUAGACCGCACGCCAGCACACCUGCUUCAUGAGAUCAUCCUUGUGGAUGAUGAUAGUGACUUCAACAGAGGAUUGAGCAUCA
B6: chr10:5457295:5457390:+|3pUTR|ENSG00000173848|msi1_unk|total|mutant (ssRNA)
RNA: GGGAGUUCUACAGUCCGACGAUCUCUGGAUUCAUCAUGGCUUUCUAAUACCAAUUGUAAUAUUUACAAUAUUCACCAAAACUCCGAAUUUUGCAAAUGCUGGAAUUCUGCCAGUGUUUCUUUGCUAAGCCUUGCAUGCAAAAUCAACAGAGGAUUGAGCAUCA
B7: chr1:152033651:152033752:-|CDS|ENSG00000163191|unk|total|mutant (ssRNA)
RNA: GGGAGUUCUACAGUCCGACGAUCGGAUGGUUAUAACUACACUCUCUCCAAGACAGAGUUCCUAAGCUUCAUGAAUACAGAACCCGCUGCCUUCACAAAGGUACUGGUCCCUGUCUCCCCCACUUCCCCAAACUACCCACAACACAACAGAGGAUUGAGCAUCA
B8: chr12:120700859:120700960:+|3pUTR|ENSG00000110917|msi1|FALSE|unique (ssRNA)
RNA: GGGAGUUCUACAGUCCGACGAUCUCUUUGCAUCUGUGUGGCUUGCUUCCAGUCUGGCCUGUCCUUUCCAGCUGCCUUUUGUCUAGCCUGCUAUGGGGGGCCAGAUUAUCUUGAUAAGAGCAGGUGAUUUGGGGACUAGCUGGGCAACAGAGGAUUGAGCAUCA
B9: chr14:71723713:71723820:+|CDS|ENSG00000197555|unk|FALSE|unique (ssRNA)
RNA: GGGAGUUCUACAGUCCGACGAUCGCUGCCCCCUCACAGCUCGCACCAUCCUUCUCCUCCUCUUCCUCCUCCUCCUCUGGUCCUAGGAGUUUUUACCCUCGCCAGGGCGCUACUAGCAAGUACCUGAUUGGAUGGAAAAAACCCCAACAGAGGAUUGAGCAUCA
B10: chr16:30989255:30992820:-|three_prime_utr|ENSG00000099365|control|control|control (ssRNA)
RNA: GGGAGUUCUACAGUCCGACGAUCGCAGACCCUGGUGUCCCUGGACCUCACCGGGCCAUGGACCCCCCCCCCGUCCCCGCACGUAGAUCGCAGCAGGCGUGAUUACACAUGCACACCAACAUGCAUGCCGCCGGCACAUGCUCGCAACAGAGGAUUGAGCAUCA
B11: chr3:111884732:111884833:+|CDS|ENSG00000144824|msi1|FALSE|unique (ssRNA)
RNA: GGGAGUUCUACAGUCCGACGAUCCUUCAACCCAAGUUAACUAGACACAAGGAGCUUGCAUCUGAAAACAUCAAUUUGAGAACUAGGAAGUACUCCAGCAGCAGCCUGAGUCACAUGGGAGCCUACAGCCGAUCACUUCCCAGGCAACAGAGGAUUGAGCAUCA
B12: chr1:28768968:28769069:+|3pUTR|ENSG00000198492|msi1|FALSE|bound_elsewhere (ssRNA)
RNA: GGGAGUUCUACAGUCCGACGAUCGACUGCAGCAACGGUUGCAUCUGCAUAUCCUAAGAGGAAAAAAUGACCUUCAAGAGAAUUAGGACUUUUUUCUUAAUUUCACUGACUUCAGAGACGAUUGCAGACUUGCAGUUUAAGUAUCAACAGAGGAUUGAGCAUCA
B13: chr11:18297563:18297669:-|CDS|ENSG00000110756|unk|total|mutant (ssRNA)
RNA: GGGAGUUCUACAGUCCGACGAUCGAUCUAAUUUCUCAACUGGAAGAAUUGAUCUUAAAAUUUGAACCUUUGGAUUCAGCUUGCCGCAGCCGAAGAAGCUCCAUUUCAUCACAUGUAAGUAUUCUCACCUUUAAAGGAUUUUGUCAACAGAGGAUUGAGCAUCA
B14: chr12:32745429:32745530:+|3pUTR|ENSG00000087470|msi1|total|mutant (ssRNA)
RNA: GGGAGUUCUACAGUCCGACGAUCCAACGGAAAGAGAAAAGCCUUCCUUUGUUGGCCCUUAAACUGAGUCAAGAUCUGAAAUGCCGAGAUGAUCUCUGACGAUACCUGUAUGUUCUUAUUGUGUAAAUAAAAUUGCUGGUAUGACAACAGAGGAUUGAGCAUCA
B15: ENSG00000107863:be:win_4551|CDS|ENSG00000107863|bound_else_gene|NA|bound_elsewhere_windowed (ssRNA)
RNA: GGGAGUUCUACAGUCCGACGAUCCAGCUGUCGCUUUGCCAUCCUGAAAGAGAGCCCCAGGUCACUUCUGGCACAGAAGUCCUCCCACCUUGAAGAGACAGGCUCUGACUCUGGCACUUUGCUCAGCACGUCUUCCCAGGCCUCCAACAGAGGAUUGAGCAUCA
B16: chr8:39103990:39104232:+|3pUTR|ENSG00000168615|msi1|total|mutant (ssRNA)
RNA: GGGAGUUCUACAGUCCGACGAUCGUUUUGUCAUUAAGUGUUUAAGUGUUAUUCUGAAUUUUCUACCUCCGUUAUCAUUAAUGCCGUUCCUCAUUGAACAUGUGAUAAUCUAAUACCUGUGAAAACUGACUAAUCAGCUGCCAACAACAGAGGAUUGAGCAUCA
B17: chr10:119917856:119917957:+|CDS|ENSG00000107651|unk|total|mutant (ssRNA)
RNA: GGGAGUUCUACAGUCCGACGAUCUAAGAAAAUCACUUUGCCAAGUAUUGGUCGAUUUCGUCACUUUACCAAUGAAACUUUGCCCGAUAUUUUAUUUUAUAACAGCCCCACCUACUGUCAGACAAUUGUGGAAAAAGCCGGAAUCAACAGAGGAUUGAGCAUCA
B18: chr15:49134392:49134529:-|CDS|ENSG00000166200|unk|FALSE|unique (ssRNA)
RNA: GGGAGUUCUACAGUCCGACGAUCAUAUUUGCUUUCCUAGACUGAUGAUGGAGAAGAUGAUCUGAAAAAAGGUACACAGUUAUUAGAAAUAUAUGCUUUGGAAAUUCAAAUGUACACAGCACAGAAAAAUAACAAAAAACUUAACAACAGAGGAUUGAGCAUCA
B19: ENSG00000087269:stop:overlap|stop_codon|ENSG00000087269|stop_codon|NA|stop_codon (ssRNA)
RNA: GGGAGUUCUACAGUCCGACGAUCGGCUGGCUGGUCUCGAAUUCCCGACCUCAGGUAAUCCACCUGCCUUGGCCCCCCAAUUAUAGGUGUGAGCCACAGCACCCAGCCAAAAAAGUAAUUUUUUUUAGAGUAAUAAUGCUAUAACAACAGAGGAUUGAGCAUCA
B20: chr7:138585310:138585366:+|3pUTR|ENSG00000122779|msi1_unk|total|mutant (ssRNA)
RNA: GGGAGUUCUACAGUCCGACGAUCCUCUUUAAGUUGAAAAGUAAAAAAUAUAUGUGGUUUGGAUGUGUGCUUUAAUUCAGCUUCCGAAAUUAAUACCACUACCCGUGAAUUAUAUGGCCUGACAAUAUGAAUCCGGUGUACUGUCAACAGAGGAUUGAGCAUCA
B21: chr2:61188134:61188237:-|CDS|ENSG00000115464|unk|total|mutant (ssRNA)
RNA: GGGAGUUCUACAGUCCGACGAUCAUCUCUCAGUUGUGGCCAUUCCAGAGGACUCUUCCGUCAUAUGCAGCAACAUGACAUUUCCGAUACCCUGUGCCGGACCAUUGAAUCUACAAUCCAUGUCGUCACAAGGAUAUCUGGCAACAACAGAGGAUUGAGCAUCA
B22: chr1:22530103:22530204:+|3pUTR|ENSG00000184677|msi1|total|mutant (ssRNA)
RNA: GGGAGUUCUACAGUCCGACGAUCCAUGUACCGAGUGGGCAGGCGGUUCCAGGGAGACAAGCAGCAUGUUAUUAAAUUGGGCCCCGGCAGUUGGACGAUAAUGGAGAAAAAGCAGGGAUGCUAUAAUGAGUCCUCCCCAAGGGUCAACAGAGGAUUGAGCAUCA

Target: T1, UNK ZnF1-6 (called full-length)
Assay: nsRBNS (natural sequence RNA bind-n-seq); RBNS binding buffer (assumed for nsRBNS): 25 mM Tris pH 7.5, 150 mM KCl, 3 mM MgCl2, 0.01% Triton X-100, 500 ug/ml BSA, 20 U/ml SUPERase-In, 4 C; UNK is unkempt and MSI1 is Musashi-1; names of the RNAs are library labels; protein concentration not given here; high values mean tight binding

Binder	binding signal
B1	0.605 enrichment R
B2	0.601 enrichment R
B3	0.37 enrichment R
B4	1 enrichment R
B5	0.514 enrichment R
B6	0.346 enrichment R
B7	0.699 enrichment R
B8	0.772 enrichment R
B9	0.953 enrichment R
B10	0.96 enrichment R
B11	0.843 enrichment R
B12	0.274 enrichment R
B13	0.498 enrichment R
B14	0.307 enrichment R
B15	0.703 enrichment R
B16	0.553 enrichment R
B17	0.581 enrichment R
B18	0.68 enrichment R
B19	0.968 enrichment R
B20	0.713 enrichment R
B21	0.515 enrichment R
B22	1.1 enrichment R
